Out of some 370,000 compounds screened, about 150 (0.041%) were called active. This list was built around the results that the source calls inconclusive (neither active nor inactive); the mix of calls is not that of the screen. The call rests on the fitted dose curve; in most records, active means well fitted inhibition curve with a large enough effect; inconclusive means small, poorly fitted or top-dose-only effect; inactive means flat fitted curve, though single readings scatter. No potency is given beside an inconclusive call; the fits are too rough.
Molecular target: Beta-lactamase (Escherichia coli (strain K12)) (UniProt P00811)
Assay: qHTS Inhibitors of AmpC Beta-Lactamase (assay with detergent); further: nearly all actives have a fitted effect of over 25% in size
Settings: AmpC hydrolysis of nitrocefin, absorbance 480 nm, 0.01% Triton; series mostly up to 114 µM
Summary of the method: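 AmpC (5.3 nM in the dispensed reagent) in 20 mM phosphate pH 7.0 with 0.01% (detergent screen) or 0.0001% Triton X-100 was preincubated with compounds for 15 min at room temperature. Nitrocefin was then added from an 800 uM solution, and hydrolysis was followed at 480 nm.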
Potency means the concentration at half of the fitted maximal effect; tags describe the fitted curve by direction and shape.

Chain of UniProt P00811 (P00811 whole entry, looked up): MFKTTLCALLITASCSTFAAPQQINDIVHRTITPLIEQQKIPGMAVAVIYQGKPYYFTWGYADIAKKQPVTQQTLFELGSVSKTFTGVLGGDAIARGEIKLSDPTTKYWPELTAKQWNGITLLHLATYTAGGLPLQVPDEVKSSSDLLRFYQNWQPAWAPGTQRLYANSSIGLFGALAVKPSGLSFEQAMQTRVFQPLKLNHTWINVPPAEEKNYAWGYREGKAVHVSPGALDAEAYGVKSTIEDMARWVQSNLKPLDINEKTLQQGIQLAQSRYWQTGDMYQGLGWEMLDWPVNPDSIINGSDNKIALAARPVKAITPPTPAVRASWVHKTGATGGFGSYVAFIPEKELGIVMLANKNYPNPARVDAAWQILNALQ

SMILES	Potency
Cc1cccc(N2CCN(C(=O)c3ccc4c(c3)NC(=O)C(CSCc3ccc(F)cc3)N4)CC2C)c1 (stereo not drawn)	inconclusive [inhibitor, full curve, poor fit]
COc1ccc(-c2nc(CSCC(=O)N3CCN(C)CC3)c(C)o2)cc1OC	inconclusive [inhibitor, full curve]
COc1cc(C(=O)N2CCN(Cc3ccc4c(c3)OCO4)CC2)c([N+](=O)[O-])cc1OC	inconclusive [inhibitor, full curve, poor fit]
O=C(COc1ccccc1[N+](=O)[O-])N1CCN(c2ccccn2)CC1	inconclusive [inhibitor, full curve, poor fit]
COc1ccc(-c2cc(C(F)(F)F)nc(SCC(=O)N(C)Cc3ccccc3)n2)cc1OC	inactive
CCOc1cnc(-c2c(-c3c(Cl)cccc3Cl)noc2C)o1	inconclusive [inhibitor, full curve, poor fit]
Cc1cc(=O)n2c(-c3ccccc3C)n[nH]c2n1	inconclusive [inhibitor, full curve, poor fit]
CCOC(=O)C1CCN(c2cc3c(cc2NC(=O)c2ccccc2)n(C)c(=O)n3C)CC1	inactive
CCOC(=O)N1CCN(S(=O)(=O)c2ccc(OCC(=O)OC)c(C)c2)CC1	inconclusive [inhibitor, full curve, poor fit]
Cc1cccc(N/N=C/c2ccccc2O)c1	inconclusive [inhibitor, partial curve, poor fit]
COc1ccc(CCNC(N)=S)cc1OC	inactive
CC(C)CCSc1nnc(Cn2c(=O)sc3ccccc32)n1C	inconclusive [inhibitor, full curve]
CCOc1cc(-c2cc(-c3ccccc3)nc(N)c2C#N)ccc1O	inconclusive [inhibitor, partial curve, poor fit]
CC(C)CNc1nc(NC(C)(C)C)nc(Oc2ccc(=O)n(-c3ccccc3)n2)n1	inactive
CN(CC(=O)Nc1ccc(F)cc1)C(=O)C1CCN(C(=O)Nc2ccccc2)CC1	inconclusive [inhibitor, full curve]
Cc1sc2ncnc(N3CCC(C(=O)NCC(=O)Nc4ccc(F)c(F)c4)CC3)c2c1C	inactive
CC1=C(C(=O)NCCCOC(C)C)C2(CCC(C)CC2)OC1=O (stereo not drawn)	inconclusive [inhibitor, full curve, poor fit]
COc1ccc(C(CC(=O)NCC(OC)OC)NS(=O)(=O)c2ccc(Cl)cc2)cc1 (stereo not drawn)	inconclusive [inhibitor, full curve, poor fit]
COc1cccc(-c2cc(C(=O)Nc3cc(C)nn3-c3ccccc3)no2)c1	inconclusive [inhibitor, single point]
O=C(COc1ccc2c(c1)oc(=O)c1ccccc12)NCCN1CCOCC1	inconclusive [inhibitor, full curve, poor fit]
O=C(COc1ccc(F)cc1Br)N1CCc2ccccc21	inactive
COCc1[nH][nH]c(=O)c1/C=N/N1CCOCC1	inconclusive [inhibitor, partial curve, poor fit]

SMILES	Potency
CCN1CCN(c2ccc(S(=O)(=O)N3CCCCC3)cc2NC(=O)c2ccccc2)CC1	inactive
O=C1CC(NC(=O)C(F)(F)F)c2cc3c(cc21)OCO3 (stereo not drawn)	inconclusive [inhibitor, full curve, poor fit]
N#Cc1cc2c([nH]c1=S)CCCC2	inconclusive [inhibitor, full curve, poor fit]
CCc1ccccc1Nc1nc(N)nc(COC(=O)CCS(=O)(=O)c2ccccc2)n1	inconclusive [inhibitor, full curve, poor fit]
COc1ccc(C(=O)NC(=C(Cl)Cl)S(=O)(=O)c2ccc(C)cc2)cc1	inactive
CCN(CC(=O)Nc1ccc(NC(C)=O)cc1)C(=O)/C=C/c1ccccc1	inconclusive [inhibitor, full curve]
COc1ccc(NC(=O)CN(C)C(=O)Cn2c(=O)oc3ccccc32)cc1	inconclusive [inhibitor, single point]
O=C(c1csc(Nc2ccccc2Cl)n1)N1CCCC1	inactive
O=C(CN1CCN(C(=O)C2CCCO2)CC1)Nc1c(Cl)cccc1Cl (stereo not drawn)	inconclusive [inhibitor, full curve]
CCn1nnc(NC(=O)c2sc3ccccc3c2Cl)n1	inconclusive [inhibitor, single point]
N#Cc1ccccc1OCC(=O)N1CCN(CC(=O)Nc2ccc(F)cc2)CC1	inconclusive [inhibitor, single point]
O=C1NC(=Nc2ccccc2)S/C1=C\c1cccn1-c1ccccc1	inactive
O=S(=O)(c1ccccc1)c1cnn2c(C(F)(F)F)cc(-c3ccccc3)nc12	inconclusive [inhibitor, full curve, poor fit]
COc1ccccc1N1CCN(C(=O)c2ccc(CSc3ccccc3)cc2)CC1	inconclusive [inhibitor, single point]
C=CCN(CC=C)C(=O)c1c(OC)cccc1OC	inconclusive [inhibitor, full curve, poor fit]
COC(C(=O)Nc1ccc(NC(=O)C(OC)c2ccccc2)cc1)c1ccccc1 (stereo not drawn)	inactive
O=C(CCS(=O)(=O)c1cc(Br)cc2c1N(C(=O)C1CC1)CC2)N1CCN(c2ccc(F)cc2)CC1	inactive
COc1ccccc1-n1c(C)nc2cc(C(=O)NCc3ccc4c(c3)OCO4)ccc21	inconclusive [inhibitor, single point]
Cc1ccccc1NC1(C#N)CCCCC1	inconclusive [inhibitor, full curve, poor fit]
S=C(NCCCN1CCOCC1)Nc1ccc(Cl)c(Cl)c1	inactive
Cc1sc2c(=O)n3c(nc2c1C(=O)NC1CCCCC1)CCCCC3	inconclusive [inhibitor, partial curve]
